Laboratory results as given in the supplement of paper PMC12217912.
This is one part of the list. Sequences were assembled here from the parent chain. Values near 0.05 are background.

B1: TEV protease; numbered along this chain (parent)
chain: MGESLFKGPRDYNPISSSICHLTNESDGHTTSLYGIGFGPFIITNKHLFRRNNGTLVVQSLHGVFKVKDTTTLQQHLVDGRDMIIIRMPKDFPPFPQKLKFREPQREERICLVTTNFQTKSMSSMVSDTSCTFPSGDGIFWKHWIQTKDGQCGSPLVSTRDGFIVGIHSASNFTNTNNYFTSVPKNFMELLTNQEAQQWVSGWRLNADSVLWGGHKVFMVKPEEPFQPVKEATQL

Variants of: B1
Test: raw area under fraction-flipped curve 0-4 h after induction (AUC4h, not background-subtracted), DNA-recorder readout of cleavage of the substrate (dimensionless); higher = more cleavage of the substrate by the protease variant
Conditions: temperature: 34 °C; time window: 0-4 h after rhamnose induction
Experimental: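 In vivo DNA recorder in E. coli TOP10(DE3) ΔrhaA at 34 °C. Each TEVp single-site mutant (parent TEVp 0) is paired with a single-site variant of the 7-mer TEVs (canonical ENLYFQ|S). The substrate sits between flexible linkers in a Bxb1-sfGFP-TEVs-SsrA fusion, so cleavage stabilises Bxb1 and speeds flipping of a recombination array, read by NGS. The value is the raw area under the fraction-flipped curve over 0-4 h after rhamnose induction (AUC4h), with ≥20 reads per time point. It is not background-subtracted; inactive controls average about 0.047.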
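Note: Bxb1 expression induced with 0.2% (w/v) L-rhamnose at OD600 near 0.5, cultures sampled hourly, flipped fraction per protease–substrate barcode pair counted by paired-end Illumina sequencing.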

Variant	area with substrate EALYFQS	area with substrate EELYFQS	area with substrate EGLYFQS	area with substrate EHLYFQS	area with substrate EILYFQS	area with substrate EKLYFQS	area with substrate ELLYFQS	area with substrate EMLYFQS	area with substrate EPLYFQS	area with substrate ERLYFQS	area with substrate ESLYFQS	area with substrate ETLYFQS	area with substrate EVLYFQS	area with substrate ECLYFQS	area with substrate EQLYFQS	area with substrate EWLYFQS	area with substrate EDLYFQS	area with substrate EYLYFQS	area with substrate EFLYFQS
S135A	0.0729	0.088	0.0618	0.0902	0.0999	0.157	0.0816	0.088	0.0873	0.0794	0.0821	0.0608	0.0825	–	–	–	–	–	–
T115N	0.0802	0.157	0.138	0.0611	0.0605	0.105	0.0933	–	0.0748	–	0.148	–	–	0.12	0.0527	0.0646	–	–	–
I145F	0.137	–	–	–	–	–	0.0845	–	0.125	0.0994	0.107	–	0.07	0.094	–	–	–	–	–
W141M	0.0859	0.0698	0.0595	0.0689	0.058	0.0548	0.0664	0.0756	0.0586	–	0.0654	0.0771	0.0639	0.0618	0.0727	–	0.117	–	–
I139S	0.221	–	–	0.16	0.12	–	0.122	0.17	0.122	–	0.12	–	–	0.129	–	–	0.155	0.117	–
I139G	0.12	0.12	0.0756	0.13	0.137	0.104	0.149	–	0.147	0.103	0.115	–	0.0988	0.112	0.157	0.121	–	–	–
K142T	0.0798	0.0906	0.0885	0.0944	0.0974	0.0841	0.0988	0.105	0.104	0.0806	0.0998	0.0845	0.079	0.087	–	–	0.128	–	–
K142E	0.0935	0.0897	0.0737	0.0975	0.0751	0.0774	0.0824	0.107	0.112	0.0928	0.107	0.0835	0.0683	0.0856	0.0808	0.0908	0.14	–	–
K142F	0.0975	–	0.109	–	0.0875	0.099	0.082	0.0791	0.112	0.0879	–	0.0806	0.077	0.0678	0.0909	–	0.139	0.0867	–
H143R	0.0517	0.0527	0.0587	0.0468	0.0525	0.0614	–	0.0549	0.114	0.0609	0.0584	0.0426	0.0628	0.0495	0.048	0.0676	0.0743	0.0409	–
H143P	0.051	0.0558	0.0561	0.0471	0.0539	0.0546	0.0481	0.0597	0.0505	–	0.0645	0.0548	0.0427	0.0485	0.0513	0.0781	0.0658	0.0766	–
H143C	0.089	–	–	0.0762	–	0.0819	0.066	–	–	–	0.07	0.0788	0.0716	0.1	0.087	0.0913	0.133	–	–
F133E	0.122	0.138	–	0.121	0.114	0.175	–	–	0.114	0.0992	0.096	–	–	–	0.136	–	–	–	0.091
T129W	0.105	0.0951	–	0.0877	0.0692	0.0894	0.0988	–	0.107	0.0914	0.0961	–	0.0705	–	0.102	0.0857	–	0.112	0.0973
T129I	0.0987	0.0951	–	–	–	0.0322	–	0.0645	0.0804	0.118	0.0903	–	0.091	0.0793	0.075	0.0528	0.141	0.0614	0.0305
E103Q	0.114	0.112	0.0887	0.0883	0.0784	0.121	0.087	0.109	0.148	0.109	0.0976	0.129	0.106	0.096	0.1	0.0967	0.0929	0.107	–
E103C	0.127	–	0.1	0.131	0.089	–	0.134	0.104	0.0998	0.11	0.114	–	–	0.116	0.118	0.1	–	–	–
E103A	0.13	0.112	0.108	–	0.11	–	–	–	0.131	–	0.131	–	0.0882	–	–	0.0929	0.123	0.101	–
F117H	0.111	0.133	–	0.113	0.109	0.103	0.0947	0.101	0.131	0.115	0.116	–	0.103	0.11	0.129	–	0.165	0.113	–
K100L	0.13	0.162	–	0.169	0.0988	–	–	0.0884	0.106	0.121	0.0309	–	0.0706	0.122	–	0.0923	0.088	–	–
K100E	0.106	–	0.102	0.097	0.09	–	0.0759	–	0.0869	0.088	0.112	–	–	0.117	–	–	–	–	0.0649
K100V	0.114	0.125	–	–	0.108	0.0882	–	–	–	0.111	0.109	–	0.0942	0.101	0.112	–	0.117	0.102	–
S127D	0.095	–	–	0.0946	0.0923	0.104	0.0732	0.101	–	0.0676	0.113	–	0.0641	0.0999	0.0898	–	–	–	0.0975
Q105M	0.122	0.103	0.0821	0.105	0.0981	0.0973	0.0878	–	–	0.0505	0.104	0.103	0.0915	0.1	0.131	0.0903	–	0.0662	0.115
Q105C	0.106	0.133	0.0959	–	0.0867	0.0967	–	–	–	0.127	0.0914	–	0.0992	0.0997	–	–	0.112	0.091	–
V113P	0.0637	0.0662	0.0758	–	0.0756	0.075	0.0694	–	0.0847	0.0727	0.0694	0.0771	0.0592	0.0602	0.0736	0.0522	–	0.0737	0.0712
